Source: the supplement of paper PMC7726561
In all, about 1,400 sequences were measured (“thermal melting temperature (Tm) of peptide-HLA complex”: median about 60, lowest 2% from about 45 on). Some of the results follow.

B1: unnamed (peptide)
chain: KMLTFLML
B2: unnamed (peptide)
chain: MPRTGNGPMSV
B3: unnamed (peptide)
chain: GPRTAALGL
B4: unnamed (peptide)
chain: FIRNRTLQL
B5: unnamed (peptide)
chain: SPHDISNVL
B6: unnamed (peptide)
chain: LPRNEADEL
B7: unnamed (peptide)
chain: RPALPSTQQL
B8: unnamed (peptide)
chain: SPNAIFKAL
B9: unnamed (peptide)
chain: YPNFAGPHAAL
B10: unnamed (peptide)
chain: MPRGVVVTL
B11: unnamed (peptide)
chain: TPISRLVAL
B12: unnamed (peptide)
chain: LPEAERNLL
B13: unnamed (peptide)
chain: VPPQNPRPSL
B14: unnamed (peptide)
chain: LPRTAISEL
B15: unnamed (peptide)
chain: APGPPGRSML
B16: unnamed (peptide)
chain: IPRPEVQAL
B17: unnamed (peptide)
chain: RVREIIINAV
B18: unnamed (peptide)
chain: TPDTGRILSKL
B19: unnamed (peptide)
chain: YPRAQLEVSAL
B20: unnamed (peptide)
chain: LPSASHFSQL
B21: unnamed (peptide)
chain: RPVPWNAL
B22: unnamed (peptide)
chain: APYGRITL
B23: unnamed (peptide)
chain: FDPALLEF
B24: unnamed (peptide)
chain: HPRAPVLL
B25: unnamed (peptide)
chain: SPRKDGLVSL
B26: unnamed (peptide)
chain: IPANWKTEL
B27: unnamed (peptide)
chain: LPRENQVVEL
B28: unnamed (peptide)
chain: RPDDVPLSL
B29: unnamed (peptide)
chain: APPRPGSSF
B30: unnamed (peptide)
chain: QPRTPSPLVL
B31: unnamed (peptide)
chain: APKPKWTQL
B32: unnamed (peptide)
chain: IPELHRPVV
B33: unnamed (peptide)
chain: WVDEERASL
B34: unnamed (peptide)
chain: SPASRSISLL
B35: unnamed (peptide)
chain: APREDPVLL
B36: unnamed (peptide)
chain: RPHAFQVIL
B37: unnamed (peptide)
chain: RPAFFAERL
B38: unnamed (peptide)
chain: RPAGALVAL
B39: unnamed (peptide)
chain: RPRPPITL
B40: unnamed (peptide)
chain: VPVPPNVAF
B41: unnamed (peptide)
chain: LPRVTELAL
B42: unnamed (peptide)
chain: IPQPTPASL
B43: unnamed (peptide)
chain: NPEKRYNVL
B44: unnamed (peptide)
chain: APRPDRLVNRL
B45: unnamed (peptide)
chain: IPAGERPTI
B46: unnamed (peptide)
chain: LPASWRPVTL
B47: unnamed (peptide)
chain: VPKYWGSGL
B48: unnamed (peptide)
chain: FPKNIFAEL
B49: unnamed (peptide)
chain: PRVPTHTL
B50: unnamed (peptide)
chain: NPKRQTLVF
B51: unnamed (peptide)
chain: TPFKGGTL
B52: unnamed (peptide)
chain: SPSPAQAQTL
B53: unnamed (peptide)
chain: RPFSQGIVIL
B54: unnamed (peptide)
chain: TPAVIRISV
B55: unnamed (peptide)
chain: RPTEGVQAL
B56: unnamed (peptide)
chain: RPKYQFLSL

target: HLA-B*07:02; test: thermal melting temperature (Tm) of peptide-HLA complex; higher = more thermostable pHLA complex; conditions: C1R-B*07:02
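Further: cell lysates heated 10 min at 37–73 °C, remaining pHLA pulled down with pan-class I antibody, peptides quantified by DIA-MS versus 37 °C, Tm where half the complex is lost.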

| Sequence | thermal melting temperature [°C] |
| --- | --- |
| B1 | 61.7 |
| B2 | 50.3 |
| B3 | 61.3 |
| B4 | 61.5 |
| B5 | 60.1 |
| B6 | 56.8 |
| B7 | 57.6 |
| B8 | 62.4 |
| B9 | 57.9 |
| B10 | 61.3 |
| B11 | 61.8 |
| B12 | 60.7 |
| B13 | 54.5 |
| B14 | 62 |
| B15 | 60 |
| B16 | 54.1 |
| B17 | 57 |
| B18 | 60.6 |
| B19 | 61.5 |

| Sequence | thermal melting temperature [°C] |
| --- | --- |
| B20 | 60.4 |
| B21 | 58.8 |
| B22 | 59.7 |
| B23 | 42.6 |
| B24 | 59.5 |
| B25 | 61.1 |
| B26 | 60.2 |
| B27 | 59.5 |
| B28 | 60 |
| B29 | 56 |
| B30 | 60.2 |
| B31 | 57.4 |
| B32 | 59.5 |
| B33 | 54.4 |
| B34 | 57.1 |
| B35 | 63 |
| B36 | 60.2 |
| B37 | 59.6 |
| B38 | 59.9 |

| Sequence | thermal melting temperature [°C] |
| --- | --- |
| B39 | 62.7 |
| B40 | 63.3 |
| B41 | 62.1 |
| B42 | 62.2 |
| B43 | 56.3 |
| B44 | 57.3 |
| B45 | 59.9 |
| B46 | 60.3 |
| B47 | 60.3 |
| B48 | 62.8 |
| B49 | 62.6 |
| B50 | 53.7 |
| B51 | 52.2 |
| B52 | 61.1 |
| B53 | 48.7 |
| B54 | 60.2 |
| B55 | 54.3 |
| B56 | 58.1 |
